# Experimental data: the supplement of paper PMC4166925
# ± gives the standard deviation of the averaged measurements. Over roughly 33,000 sequences, “E-score (dimensionless, -0.5 to 0.5)” has its median near -0.046; the highest 2% begin near 0.36. The list shows a part of the results.
# System: T1, SpTbr T-box DNA-binding domain (GST fusion)
# T1 sequence: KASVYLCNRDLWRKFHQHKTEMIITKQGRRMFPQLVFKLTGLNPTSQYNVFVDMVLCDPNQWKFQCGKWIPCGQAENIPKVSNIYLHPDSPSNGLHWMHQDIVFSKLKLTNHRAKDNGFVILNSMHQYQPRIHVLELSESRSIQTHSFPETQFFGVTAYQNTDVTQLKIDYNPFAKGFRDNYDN
# Experiment: PBM E-score of 8-mer (E-score (dimensionless, -0.5 to 0.5)); Tbr is Tbrain of the sea star Patiria miniata (Pm) or the sea urchin Strongylocentrotus purpuratus (Sp); higher = stronger binding preference; most listed sequences are background and not binding sites
# Conditions: the construct has about 5 more residues each side
# How it was run: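 GST-fused Tbr T-box DNA-binding domains (the whole T-box plus about five flanking residues) were expressed in BL21 E. coli at 20 °C and purified by glutathione affinity chromatography. Universal Agilent oligonucleotide arrays were made double-stranded by primer extension, incubated with 200 nM protein in PBS (pH 7.5), then scanned and quantified. Every ungapped 8-mer was scored from probe intensities. The Universal PBM Analysis Suite gave each word an enrichment E-score, averaged over duplicate arrays.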
row,Sequence,PBM E-score of 8-mer
1,CTACCATA,-0.0906 ± 0.045
2,AAAAGCTC,-0.0622 ± 0.065
3,CGTGTAAA,0.296 ± 0.027
4,CCTTGGTC,-0.155 ± 0.13
5,CTATAGAG,-0.282 ± 0.072
6,CGCCACGC,0.113 ± 0.022
7,TCCCTGAA,-0.204 ± 0.075
8,CTAGTCTA,-0.179 ± 0.058
9,AACTCTAT,-0.0786 ± 0.034
10,AAATTCGT,-0.0546 ± 0.095
11,CCCGGTAA,-0.228 ± 0.0044
12,ACTACTAA,-0.1604 ± 0.00025
13,AATCTTTA,-0.0541 ± 0.083
14,ACCAGTTG,-0.00842 ± 0.05
15,ATGTAACC,-0.22 ± 0.043
16,CAGACAAC,-0.0376 ± 0.013
17,ACACGGAG,0.126 ± 0.005
18,CTCTTTCC,-0.0647 ± 0.075
19,CCTACTGA,-0.116 ± 0.007
20,ACTCGGTG,0.133 ± 0.025
21,ATAGCCTC,-0.234 ± 0.0044
22,AAACTTGG,-0.128 ± 0.057
23,TGTCAACA,0.4051 ± 0.0019
24,GCCGGATA,-0.321 ± 0.0046
25,GGGTTTCA,-0.1 ± 0.084

row,Sequence,PBM E-score of 8-mer
1,GGTCCCGA,-0.26 ± 0.0084
2,CGCGCTAC,0.218 ± 0.024
3,CAGCTTTA,0.114 ± 0.029
4,AGCGCCTA,0.181 ± 0.0058
5,CGGGTGTC,0.3608 ± 0.0021
6,ACTAGCCA,-0.149 ± 0.072
7,AAGACTCC,-0.311 ± 0.011
8,TAAGCCCA,-0.145 ± 0.035
9,AACGTCCC,0.104 ± 0.0077
10,CGATCGCC,0.128 ± 0.1
11,CCAGCTAC,-0.0977 ± 0.027
12,GAAGTACA,-0.0366 ± 0.11
13,AAAGGAGC,-0.0232 ± 0.041
14,CACGCTAC,0.179 ± 0.092
15,GGGTCGGA,-0.0487 ± 0.015
16,ACTGGTGG,0.0642 ± 0.05
17,GAACCTCA,-0.0264 ± 0.06
18,GTGGACAA,0.00611 ± 0.011
19,CGAGTGTC,0.305 ± 0.011
20,AAGGGTCC,-0.221 ± 0.023
21,CTATTACA,0.206 ± 0.015
22,GGAGTAAA,-0.148 ± 0.013
23,ATCGCGCC,0.4021 ± 0.0011
24,AACAGCTT,0.221 ± 0.043
25,GGTTAGGA,-0.202 ± 0.017

row,Sequence,PBM E-score of 8-mer
1,AACCATAT,-0.143 ± 0.016
2,CGGAGCGA,0.0335 ± 0.012
3,CAAGTGGC,0.246 ± 0.03
4,GCCAAGAA,-0.0758 ± 0.011
5,TCTCAAAA,-0.176 ± 0.025
6,ATAAGCTG,0.00517 ± 0.008
7,CACCTGAC,0.374 ± 0.0049
8,ATTCGGGG,-0.21 ± 0.023
9,CGGCTCCC,-0.04913 ± 0.00011
10,CGCGCTTC,0.228 ± 0.043
11,ACTCAGAG,-0.0809 ± 0.032
12,AGACTCAT,-0.116 ± 0.033
13,TAGACATA,-0.281 ± 0.0072
14,CGCACAAA,-0.00615 ± 0.05
15,ACGAACCT,-0.113 ± 0.08
16,ATTCGGAA,-0.271 ± 0.015
17,CTAGTATA,-0.00825 ± 0.1
18,AGGGTACT,-0.0543 ± 0.024
19,ATCCAGCG,-0.0457 ± 0.042
20,GCACCGTA,0.0905 ± 0.09
21,AATGATGT,0.00537 ± 0.014
22,GAAGCCTC,-0.0324 ± 0.11
23,TGAGTCCA,-0.14 ± 0.039
24,AGTTCCGG,-0.2769 ± 0.00061
25,AACTACAA,0.107 ± 0.086

row,Sequence,PBM E-score of 8-mer
1,GCCTTACC,-0.157 ± 0.023
2,GGTGCGGA,0.404 ± 0.023
3,GTTCGCTA,0.15 ± 0.0052
4,ATTCATGC,-0.0337 ± 0.021
5,ACCCTGAA,0.147 ± 0.021
6,AGCAACGA,-0.0157 ± 0.0052
7,GATACGCA,-0.0423 ± 0.00059
8,GGGGCACA,-0.0759 ± 0.03
9,GGCAAGAA,-0.182 ± 0.068
10,GAGCAGGA,-0.149 ± 0.092
11,TAAGAACA,-0.0304 ± 0.082
12,ACACAGTG,0.285 ± 0.015
13,GTTCTTTA,-0.164 ± 0.051
14,GATCAACC,-0.12 ± 0.0035
15,ATTGAGGA,-0.174 ± 0.086
16,AAGGGTGG,0.146 ± 0.028
17,AGCCACCA,-0.0464 ± 0.031
18,ATATATAG,0.000495 ± 0.06
19,TCTAATAA,-0.0597 ± 0.026
20,ACGTATGC,0.0191 ± 0.0035
21,AATGATGA,-0.139 ± 0.056
22,CTGGGATA,-0.188 ± 0.098
23,AGAATTTA,-0.243 ± 0.096
24,TCGTTTAA,-0.111 ± 0.006
25,TCGCGACA,0.322 ± 0.0016

row,Sequence,PBM E-score of 8-mer
1,CCAGGGGA,-0.278 ± 0.008
2,CTTACCGA,-0.181 ± 0.022
3,AAGCATGA,0.0805 ± 0.033
4,TCGCAAAA,0.132 ± 0.0091
5,GGCGATAC,0.0327 ± 0.059
6,TCGCTCAA,0.0108 ± 0.038
7,CTAAACCA,-0.0751 ± 0.046
8,ATATCATC,0.051 ± 0.031
9,ACGGATTA,-0.191 ± 0.027
10,AATGTGAA,0.179 ± 0.065
11,ACTGCGCT,0.0647 ± 0.021
12,TCGTACCA,-0.0779 ± 0.12
13,CCAGTCTC,-0.199 ± 0.0046
14,CCACCACG,-1e-05 ± 0.011
15,GCCAAGCC,-0.153 ± 0.012
16,AACCTCAC,0.182 ± 0.034
17,CCTAGAAG,-0.116 ± 0.088
18,CTGAATTC,-0.284 ± 0.014
19,ACTCTGGA,-0.299 ± 0.026
20,AGGCTTCA,-0.105 ± 0.024
21,ATGTTCCA,-0.15 ± 0.0063
22,ACTGGAGG,0.0415 ± 0.012
23,GCTACCAA,0.047 ± 0.019
24,GCCGCGCC,0.13 ± 0.042
25,AGATAGTG,0.203 ± 0.021

row,Sequence,PBM E-score of 8-mer
1,GCGTTGCA,0.191 ± 0.011
2,AAAGCCTG,-0.0703 ± 0.037
3,GCCTCGAA,-0.251 ± 0.017
4,TAGGCCTA,-0.124 ± 0.14
5,ATAGGGAC,-0.0192 ± 0.038
6,TCCTGAAA,-0.301 ± 0.025
7,AGGTTATC,0.0555 ± 0.019
8,CCGTCCAC,-0.0917 ± 0.0043
9,AGACTGTA,-0.109 ± 0.032
10,ATCACGTC,0.086 ± 0.0023
11,AATGAAAA,-0.0766 ± 0.12
12,AATGGTGG,-0.0541 ± 0.078
13,ACTGTCGG,0.189 ± 0.051
14,CTACGATA,0.151 ± 0.048
15,GTGGCGCA,0.107 ± 0.091
16,GCGTCGGA,-0.036 ± 0.031
17,ATAAAAGA,-0.274 ± 0.02
18,GCTCTAAA,-0.1 ± 0.025
19,CCTATTCC,-0.0953 ± 0.027
20,AGATCGGG,-0.08 ± 0.0082
21,ACAAAGCC,-0.0854 ± 0.036
22,AGGTTCGA,-0.135 ± 0.027
23,AATGATTG,0.021 ± 0.017
24,TAAACACA,0.231 ± 0.044
25,ATGTCAAC,0.267 ± 0.024

row,Sequence,PBM E-score of 8-mer
1,AGGATCCG,-0.367 ± 0.011
2,GGGTGACA,0.4258 ± 0.0018
3,AGTCGGAA,-0.166 ± 0.13
4,TCCAGCAA,-0.1526 ± 0.0014
5,CGGTTTAG,-0.0144 ± 0.033
6,AGCAGAAT,0.0268 ± 0.0024
7,ATGAATAA,-0.2 ± 0.032
8,GACGGACC,-0.14 ± 0.031
9,AGGGAACT,-0.00114 ± 0.059
10,GCTATGGA,-0.256 ± 0.036
11,CGCGCATC,0.103 ± 0.018
12,ATCTGGGA,-0.075 ± 0.11
13,CAAGGGCG,0.0308 ± 0.03
14,CTCCTTCC,-0.114 ± 0.036
15,ACGCAGAT,-0.133 ± 0.0062
16,CAAGATTC,-0.217 ± 0.0083
17,GAATCAGA,-0.0679 ± 0.055
18,AGATAGAC,-0.335 ± 0.056
19,ATATATGC,-0.293 ± 0.023
20,ACGCTTGG,0.0203 ± 0.037
21,CTGCTTGA,-0.163 ± 0.076
22,AGCTAACT,-0.27 ± 0.067
